Results published in PubChem BioAssay AID1745853 (National Center for Advancing Translational Sciences (NCATS), 2022).
This is one part of the list. These are further read-outs of the screen, such as a control signal, another cell line or another target. No call is given for them.

Assays:
Assay in all cases: Primary Screen for Target Class Profiling of Small Molecule Inhibitors of Methyltransferases
[1] = target: Glycine N-methyltransferase (Homo sapiens) (UniProt Q14749); details: purified enzyme, MTase-Glo SAH luminescence; measured here: GNMT inhibition; at 40 µM; stronger effect = lower value
Outline: (§1)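 Each enzyme was assayed with SAM and its substrate. SAH formation detected by MTase-Glo luminescence; single-point 40 uM screen[…].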

[2] = target: Guanidinoacetate N-methyltransferase (Homo sapiens) (UniProt Q14353); details: purified enzyme, MTase-Glo SAH luminescence; measured here: GAMT inhibition; at 40 µM; stronger effect = lower value
Outline: as §1

[3] = target: Histamine N-methyltransferase (Homo sapiens) (UniProt P50135); details: purified enzyme, MTase-Glo SAH luminescence; measured here: HNMT inhibition; at 40 µM; stronger effect = lower value
Outline: as §1

[4] = target: Nicotinamide N-methyltransferase (Homo sapiens) (UniProt P40261); details: purified enzyme, MTase-Glo SAH luminescence; measured here: NNMT inhibition; at 40 µM; stronger effect = lower value
Outline: as §1

[5] = target: Phenylethanolamine N-methyltransferase (Homo sapiens) (UniProt P11086); details: purified enzyme, MTase-Glo SAH luminescence; measured here: PNMT inhibition; at 40 µM; stronger effect = lower value
Outline: as §1
On the % scale 0 is the no-effect control and ±100 the full control effect.

Row | Structure (SMILES) | activity change, negative = inhibition [1] [%] | activity change, negative = inhibition [2] [%] | activity change, negative = inhibition [3] [%] | activity change, negative = inhibition [4] [%] | activity change, negative = inhibition [5] [%]
1 | Cc1ccc(Nc2c(F)cccc2Cl)c(CC(=O)O)c1 | -5.3 | -8.18 | -0.35 | -24.8 | -4.83
2 | O=C(CCc1nnc2n(Cc3ccccc3Cl)c(=O)c3ccccc3n12)NCCc1c[nH]c2ccccc12 | -3.37 | 2.59 | -32.6 | -3.27 | -4.84
3 | CCN1C(=O)C2CC3(CCN(S(C)(=O)=O)CC3)CN2C1=O (stereo not drawn) | -4.02 | -10 | -5.46 | -11.5 | -12.1
4 | Cc1cccc(Cn2nc3n(CCC(C)C)c(=O)c4ccc(C(=O)NC(C)C)cc4n3c2=O)c1 | -0.221 | -0.929 | 14.2 | 0.584 | -2.28
5 | CCc1nnc(CN(CC)C(=O)c2cc(S(N)(=O)=O)ccc2F)o1 | 0.271 | -1.63 | 0.164 | -2.43 | 0.203
6 | COC(=O)c1ncn2c1C(=O)N(c1ccc(C)c(C)c1)C(C)(C(=O)NCCCOC(C)C)C2 (stereo not drawn) | 4.98 | 0 | 14.3 | 5.27 | 9.4
7 | CCN(CC)CCCN1C(=O)c2cc3occc3n2CC1(C)C(=O)NC1CCCCCC1 (stereo not drawn) | -1.81 | -3.36 | 5.19 | 1.15 | -1.37
8 | CC1CCN(S(=O)(=O)c2ccc3c(ccn3CCC(=O)N3CCc4ccccc43)c2)CC1 | -0.978 | -1.53 | -1.9 | -8.62 | -6.37
9 | NC(=NCc1ccccc1)NC(=O)c1nc(Cl)c(N)nc1N | -11.3 | -0.146 | -9.1 | -10.7 | -1.53
10 | COc1ccc(N2CCN(C(=O)c3ccc(Nc4nc5ccccc5n5nnnc45)cc3)CC2)cc1 | -15.8 | 2.14 | -6.31 | -3.45 | -6.11
11 | COc1ccc([C@@H]2OC[C@H]3[C@@H]2CO[C@@H]3c2ccc(OC3OC(CO)C(O)C(O)C3O)c(OC)c2)cc1OC (stereo partly drawn) | 2.9 | 3.8 | 6.92 | -9.09 | -1.38
12 | COc1cc(O)c([C@@H](CC(=O)N2CC(C)CC(C)C2)c2ccc3c(c2)OCO3)c(OC)c1 (stereo partly drawn) | 2.29 | 2.77 | 7.37 | -44.7 | -1.16
13 | C/C=C/C1=CC2=C(CO1)C(=O)C(C)(OC(=O)c1c(C)cc(O)cc1OC)C(O)C2 (stereo not drawn) | 1.13 | 6.58 | 12.5 | -2.35 | 5.77
14 | CCCn1c(=O)c2ccc(C(=O)NC(C)CC)cc2n2c(SCC(=O)Nc3cccc(C)c3)nnc12 (stereo not drawn) | 7.33 | 0 | 12.9 | 7.26 | 6.75
15 | COc1ccccc1NC(=O)Cn1nc2n(Cc3ccc(F)cc3)c(=O)c3ccccc3n2c1=O | -0.148 | 5.52 | 1.97 | -0.127 | -1.91
16 | CC1=CC(=O)OC(C)(CC(C)(O)C(=O)O)C1 (stereo not drawn) | 3.38 | -3.91 | 4.48 | -13.5 | -0.453
17 | CCCc1nc(C(=O)NC(CC)c2ccc(S(C)(=O)=O)cc2)cs1 (stereo not drawn) | -1.6 | -2.82 | 0.033 | -7.89 | -3.56
18 | Nc1nc(N)c2nc(CNc3ccc(C(=O)NC(CCC(=O)O)C(=O)O)cc3)cnc2n1 (stereo not drawn) | -13.3 | 8.5 | 3.76 | -7.99 | 2.6
19 | O=C(c1ccco1)N1CCCCC1c1nc(C2CC2)n[nH]1 (stereo not drawn) | -4.53 | -10.4 | -3.19 | -13.7 | -11.1

Row | Structure (SMILES) | activity change, negative = inhibition [1] [%] | activity change, negative = inhibition [2] [%] | activity change, negative = inhibition [3] [%] | activity change, negative = inhibition [4] [%] | activity change, negative = inhibition [5] [%]
20 | CCCn1c(=O)c2ccc(C(=O)NC(C)C)cc2n2c(=O)n(CC(=O)Nc3ccc(Cl)cc3)nc12 | 5.54 | 0 | 5.71 | -1.53 | 3.54
21 | CC1(C(=O)NC2CCCCCCC2)Cn2c(ccc2-c2ccccc2)C(=O)N1Cc1ccccc1F (stereo not drawn) | 2.63 | 0 | 5.99 | 3.13 | 2.37
22 | CNCCN1CCC(c2cc(CN(C)C(=O)c3cccc(Oc4ccccc4)c3)ccn2)CC1 | 4.91 | 10.5 | -0.772 | -8.56 | 3.76
23 | COc1ccc(-c2cc(-c3ccc4c(c3)NC(=O)CO4)nc3c2COc2ccc(C)cc2-3)cc1 | – | -21.9 | – | -25.5 | -1.45
24 | CC(C)(O)/C=C/C(=O)[C@](C)(O)[C@H]1[C@H](O)C[C@@]2(C)[C@@H]3CC=C4[C@@H](C=C(O[C@@H]5O[C@H](CO)[C@@H](O)[C@H](O)[C@H]5O)C(=O)C4(C)C)[C@]3(C)C(=O)C[C@]12C | 0 | -9.63 | -2.67 | -18.5 | -1.04
25 | O=C(CCc1nnc2n(CCc3ccccc3)c(=O)c3ccccc3n12)NCc1cccnc1 | -13.4 | 0 | 7.69 | 9.65 | 2.84
26 | CC(=O)OC1C(O)C(C)(O)C(/C=C/C(=O)O)C2(C)CCCC(C)(C)C12 (stereo not drawn) | -0.915 | -13.3 | -0.851 | -25.2 | -1.93
27 | CC(C)C1=NOC2(CCN([S+](=O)([O-])c3cccs3)C2)C1 (stereo not drawn) | -7.63 | -10.4 | -4.35 | -15.9 | -21.5
28 | O=S(=O)(Nc1ccccc1F)c1ccc2[nH]c3c(c2c1)CCCC3 | -6.26 | 2.66 | -0.793 | -6.79 | 0.016
29 | Cc1nnc2n(-c3ccccc3)c(=O)c3ccc(C(=O)NCc4ccc5c(c4)OCO5)cc3n12 | 1.29 | 0.884 | -6.59 | 0.889 | -10.4
30 | O=C(C[C@@H]1CCNC[C@@H]1Cc1cc(CN2CCCCC2)on1)NCc1cccs1 | -0.861 | -2.68 | -2.35 | -9.2 | 9.71
31 | CN(C)c1nc(-c2ccccc2)nc2c1CCN(C(=O)C1CCOC1)C2 (stereo not drawn) | -9.01 | -7.6 | -6.2 | -18.8 | -11
32 | Cc1ccc(C)c(N2C(=O)c3cc(-c4ccco4)nn3CC2(C)C(=O)NC2CCCCC2)c1 (stereo not drawn) | -12.9 | 2.4 | -26.6 | -5.03 | -6.06
33 | COc1ccc(NS(=O)(=O)c2ccc3[nH]c(=O)[nH]c3c2)cc1OC | -1.34 | 0 | 2.8 | -3.36 | -16.2
34 | CCOc1ccc(CNC(=O)c2cc3n(n2)CC(C)(C(=O)NCc2ccccc2)N(C)C3=O)cc1OC (stereo not drawn) | -0.221 | 2.7 | -0.102 | 9.27 | 2.02
35 | Fc1ccc(C(c2ccc(F)cc2)N2CCN(C/C=C/c3ccccc3)CC2)cc1 | -2.95 | 9.84 | 3.5 | -3.44 | 10.9
36 | Oc1ccc([C@H]2COc3cc(O)ccc3C2)cc1 | 3.42 | 8.02 | 4.56 | -9.78 | 5.05
37 | COCCCN(CCC(=O)NCc1ccc2c(c1)OCO2)C(=O)c1cc(C)oc1C | -0.314 | 1.02 | 3.15 | -3.02 | -1.61
38 | O=C(CCc1conc1-c1ccccc1F)NCc1cccc(C(F)(F)F)c1 | -7.14 | -9.63 | -2.62 | -19.4 | -15.6
